The values below come from ChEMBL document CHEMBL4888484, “Replenishing the malaria drug discovery pipeline: Screening and hit evaluation of the MMV Hit Generation Library 1 (HGL1) against asexual blood stage Plasmodium falciparum ,using a nano luciferase reporter read-out” (2022).

In all, about 150,000 compounds went through this assay and about 540 (0.36%) showed an effect of 50% or more. Some of the results follow.

The test system of the experiment is Plasmodium falciparum. The experiment can be described thus: Primary screen in NF54 nanoGlo assay, in single point, at 2uM, 72h; a lower Z score goes with more inhibition. Type of experiment: functional, Erythrocyte. The note with it: timepoint 72 hour.
Regarding `CCN(Cc1ccc2ccccc2n1)C(=O)CCC1CCC(C)O1` (configuration not stated), the % Inhibition (usually the change of the read-out against control, counted positive when it falls) was -17% and the Z score turned out to be 1.61.

In the case of `COc1cn(CC(=O)NC2CCCCC2)c(CO)cc1=O`, the “% Inhibition” value turned out to be 32% and the Z score was -3.65.

As to `CCCCN(CC(=O)N1c2ccccc2-n2cccc2[C@H]1c1ccc(Cl)cc1)C(=O)Nc1cccc(C#N)c1`, the “% Inhibition” value was determined as 3% and the Z score was -0.5.

For `Cc1noc(-c2ccsc2NC(=O)c2cnoc2C)n1`, the “% Inhibition” value is listed as -6% and the Z score is listed as 1.22.

For `NC(=O)c1cc(S(=O)(=O)N2CCC(N3CCCCC3)CC2)cs1`, the “% Inhibition” value is reported as -9% and the Z score amounted to 0.84.

In the case of `CCCCC(=O)NCc1nnc(C(=O)Nc2ccc3c(c2)OCO3)s1`, the “% Inhibition” value stood at 15% and the Z score is reported as -1.7.

Turning to `CCN1CCC(NC2CCOCC2)C1c1cc(F)c(F)c(F)c1` (configuration not stated), the “% Inhibition” value is recorded as -1% and the Z score stood at 0.22.

Turning to `O=S1(=O)C[C@H](O)[C@@H](N(CCO)Cc2cncn2Cc2ccccc2)C1`, the “% Inhibition” value is -1% and the Z score amounted to 0.06.

Regarding `Cc1ccccc1CN1CC[C@H](CNC(=O)CCc2c(C)nn(C)c2C)C1`, the “% Inhibition” value is given as -4% and the Z score stood at 0.65.

For `O=C(NCc1cc(-c2ccccn2)no1)[C@H](O)C1CCCCC1`, the “% Inhibition” value is given as -3% and the Z score is listed as 0.48.

As for `CCS(=O)(=O)N1CCC(C(=O)N2N=C(C)C[C@]2(O)C(F)F)CC1`, the “% Inhibition” value is 2% and the Z score is recorded as -0.31.

Regarding `CN1CCOc2cc(C(=O)N(C)[C@H]3CS(=O)(=O)C[C@@H]3O)ccc21`, the “% Inhibition” value is recorded as 0% and the Z score was -0.01.

With `CC[C@@](C)(C#N)NC(=O)Cc1csc(-c2ccoc2)n1`, the “% Inhibition” value is -3% and the Z score worked out at 0.37.

`CC(C)N1CCC(NC(=O)[C@H]2CC(=O)N(c3cccc(Br)c3)C2)CC1`: the “% Inhibition” value is reported as 8% and the Z score is given as -1.15.

As to `Cc1c(CNC2CCC(C)CC2)c(C(=O)O)c(C)n1Cc1ccc(F)cc1Cl` (configuration not stated), the “% Inhibition” value is recorded as -18% and the Z score came to 3.39.

As to `C[C@H](Nc1cccc(OCCF)c1)c1ccc(F)cn1`, the “% Inhibition” value was 9% and the Z score is on record as -1.64.

For the compound `CCC(=O)N1CC[C@H](Cn2c(C)cnc2C2CCC2)C1`, the “% Inhibition” value is recorded as 5% and the Z score is recorded as -0.64.

Turning to `Cc1nonc1CC(=O)N[C@H]1CN(C(=O)c2ccc(Cl)cc2)C[C@@H]1C1CC1`, the “% Inhibition” value is recorded as -10% and the Z score was determined as 1.27.

On to `Cc1ccnc(NCC(CO)C2CCOC2)c1` (configuration not stated), for which the “% Inhibition” value was 5% and the Z score is -0.7.

Consider `COc1ccc(-c2ncc(CN3CCC[C@H](C(=O)c4ccc(Cl)cc4)C3)cn2)cc1`, for which the “% Inhibition” value is given as -6% and the Z score is reported as 0.8.

In the case of `COc1cccnc1CNC(=O)c1cc(COC(C)(C)C)on1`, the “% Inhibition” value is on record as -12% and the Z score amounted to 2.11.

Turning to `Cc1cc(S(=O)(=O)N(C)c2cnn(C)c2)sc1Cl`, the “% Inhibition” value is given as -12% and the Z score is 1.06.

With `CCN(CC)C(=O)C1CCCN1C(=O)NC(C)c1csc(C)n1` (configuration not stated), the “% Inhibition” value amounted to 4% and the Z score is recorded as -0.55.

With `CCc1c(C(C)(C)C)noc1NC(=O)COC[C@H]1CCCO1`, the “% Inhibition” value is 2% and the Z score is -0.35.

For `O=C(O)c1cc(-c2ccc(C3CCCCC3)cc2)nc2ccccc12`, the “% Inhibition” value was 9% and the Z score is on record as -1.14.

As for `COc1ccc(CNC(=O)C2CCN(c3nccn4nc(-c5ccccc5)cc34)CC2)cc1OC`, the “% Inhibition” value is recorded as -4% and the Z score is 0.41.
